# Measured values reported in PubChem BioAssay AID1345083 (National Center for Advancing Translational Sciences (NCATS), 2018).
# Hit rate of the full screen: of about 94,000 compounds, about 6,200 (6.6%) were called active. The shares of active, inactive and inconclusive entries below differ from those in the screen. Calls follow the shape of the dose curve; as a rule, active = well fitted inhibition curve with a large enough effect; inconclusive = small, poorly fitted or top-dose-only effect; inactive = flat fitted curve, though single readings scatter. Potencies of inconclusive entries are doubtful fits and often do not repeat.
# Assay: Cytotoxic Profiling in HEK 293 Cell Line of Diverse Libraries Using Quantitative High-Throughput Screening; also: nearly all actives have a fitted effect of over 60% in size
# Details: HEK 293 viability, ATP luminescence (CellTiter-Glo), 48-72 h; activity change, negative = cytotoxicity: at 115 µM (top of the series) unless noted; series mostly up to 115 µM
# Summary of the method: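 Cytotoxicity was scored by loss of ATP-coupled luminescence (CellTiter-Glo) in HEK 293 cells. Compound treatment ran 48 or 72 hr at 37 degree Celsius, 5% CO2, 95% humidity.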
# % is scaled to controls: 0 for no effect and ±100 for the full control effect; potency is read from the fitted curve at half-maximal effect; tags tell the direction and shape of the fitted curve.
SMILES,Potency,outcome,"activity change, negative = cytotoxicity"
COc1ccc(C(=O)NC2CCN(c3cnn(C)c(=O)c3)CC2)c(OC)n1,"inconclusive: 89.1 µM [inhibitor, single point]",,
COCCN1C(=O)c2ccccc2C(C(=O)Nc2nc(C)c(C)s2)C12CCCCC2 (stereo not given),"inconclusive: 89.1 µM [inhibitor, single point]",,
Cc1cc2ncc(C(=O)N3CCN(C)CC3)cn2n1,,inactive [at 172 µM],
CC1(c2ccccc2)N(Cc2ccccc2)C(=O)OC12CCN(C(=O)Cc1ccc(O)cc1)CC2 (stereo not given),"inconclusive: 56.2 µM [inhibitor, partial curve, poor fit]",,
CN1CCCCCC1C(=O)NCc1cccnc1Oc1ccccc1F (stereo not given),,,inactive: -23.7%
CC(C)N1CCOC[C@H]1c1ncc(-c2ccc(F)cc2)[nH]1,,,inactive: -26.7% [at 230 µM]
O=C(NCCN1CCOCC1)c1cn2cc(-c3ccc(C(F)(F)F)cc3)sc2n1,,,inactive: -3.2%
Cc1ccc(-n2c(C3CCN(C(=O)Cc4ccccc4)CC3)n[nH]c2=O)cc1,,,inactive: 4.33%
COc1ccc(N2CC(c3noc(-c4cccc(OC)c4)n3)CC2=O)cc1 (stereo not given),"inconclusive: 56.2 µM [inhibitor, partial curve, poor fit]",,
CCOC(=O)C1(Cc2ccc(Cl)cc2)CCNCC1,"inconclusive: 56.2 µM [inhibitor, partial curve, poor fit]",,
COc1ccc(CN2CC3(CCN(S(=O)(=O)Cc4ccccc4)CC3)C2=O)cc1,"inconclusive: 50.1 µM [inhibitor, partial curve, poor fit]",,
O=C(CCC[C@H]1NC[C@@H]2C[C@H]1CN(Cc1ccccc1)C2)Nc1cccc(F)c1,"inconclusive: 56.2 µM [inhibitor, partial curve, poor fit]",,
O=C(NCc1ccccc1)C1CCN(C(=O)c2ccc(-c3cccs3)cc2)CC1,"inconclusive: 50.1 µM [inhibitor, partial curve, poor fit]",,
COc1ccc(-c2nc(C(=O)N3CCN(c4ncccn4)CC3)n3ccccc23)cc1,"inconclusive: 20 µM [inhibitor, full curve]",,
COc1ccc(N2CCN(C(=O)Cn3ccn4nc(-c5ccccc5)c(CO)c4c3=O)CC2)cc1,"inconclusive: 79.4 µM [inhibitor, single point]",,
CC(NC(=O)c1noc(-c2ccc(F)cc2)n1)c1ccc(F)cc1 (stereo not given),"inconclusive: 70.8 µM [inhibitor, partial curve, poor fit]",,
Cc1nn(-c2ccccc2)c2c1C(C1CC1)N(C1CCN(C(=O)c3ccccc3Cl)C1)C2=O (stereo not given),active: 35.5 µM,,
O=C(C1=NOC2CN(C(=O)C3CC3)CC12)N1CCN(c2ncccn2)CC1 (stereo not given),,,inactive: -14.2%
O=C(NCc1ccc(Cl)cc1)c1cccn2cncc12,"inconclusive: 112 µM [inhibitor, partial curve, poor fit]",,
CCCCOC(=O)N1CCC(OC)c2ccccc2N(CC(=O)NC)C(=O)C1 (stereo not given),"inconclusive: 50.1 µM [inhibitor, partial curve, poor fit]",,

SMILES,Potency,outcome,"activity change, negative = cytotoxicity"
CCOC(=O)[C@H]1[C@@H](O)C(=O)N(Cc2ccccc2)C12CCN(C(=O)c1ccc(Cl)cc1)CC2,,,inactive: -16.6%
CC(C)N1C(=O)C(CC(=O)NCCCN2CCCc3ccccc32)=C2CCCCC21 (stereo not given),"inconclusive: 100 µM [inhibitor, single point]",,
COc1ccccc1Nc1ccnc(N2CCCC2C(=O)NCCCc2ccccc2)n1 (stereo not given),"inconclusive: 39.8 µM [inhibitor, partial curve]",,
O=C(NC[C@H]1O[C@H](Cc2cc(COc3ccccc3)on2)CC[C@@H]1O)c1ccccc1,"inconclusive: 112 µM [inhibitor, single point]",,
COC(=O)[C@@H]1Cc2c([nH]c3ccccc23)[C@@H]2C[C@@H](NC(C)C)C[C@@H](c3ccc(F)cc3)N12,active: 28.2 µM,,
O=C(C1CC1)N1CCC2(CC1)CC(N1CCCC1)CCO2 (stereo not given),"inconclusive: 89.1 µM [inhibitor, single point]",,
CCc1nc2c(c(-c3ccc(OC)cc3)n1)CCN(C(=O)c1ccc(C(F)(F)F)cc1)CC2,"inconclusive: 89.1 µM [inhibitor, single point]",,
COc1ccc(C(=O)N2CCN(Cc3ccc(=O)n(C)c3)CC2)cn1,,,inactive: -6.88%
CNc1nccc(N2CCC(CC(=O)NCc3nc4ccccc4n3C)CC2)n1,"inconclusive: 44.7 µM [inhibitor, partial curve, poor fit]",,
CS(=O)(=O)N1CCC(OC2CCN(C(=O)Nc3cccc(Cl)c3)CC2)CC1,"inconclusive: 50.1 µM [inhibitor, partial curve, poor fit]",,
Fc1ccc(CNC2(Cc3cc(-c4ccccc4)on3)COC2)cc1,active: 89.1 µM,,
O=C(c1cccc(Cl)c1)N1CCC(C(=O)N2CCCC2c2nc3ccncc3[nH]2)CC1 (stereo not given),,inactive,
COc1cccc(C(=O)N2CCC(C(=O)N3CCCC3c3nc4ccncc4[nH]3)CC2)c1 (stereo not given),,,inactive: -1.82%
CCn1cc(CN2CCCC23CCN(c2cc(C)nc4ccccc24)CC3)c(C)n1,"inconclusive: 50.1 µM [inhibitor, partial curve, poor fit]",,
COc1cccc(-c2noc(Nc3ccc4c(c3)OCCO4)n2)c1,"inconclusive: 63.1 µM [inhibitor, partial curve, poor fit]",,
C[S+](=O)([O-])c1ccc(-c2cc3c(cn2)CN(CCc2ccccc2)CCN3)cc1,"inconclusive: 63.1 µM [inhibitor, partial curve, poor fit]",,
Cc1ccc(CN2CC[C@@H]3C(=O)NCCCCCCN(Cc4ccncc4)[C@@H]3C2)o1,"inconclusive: 89.1 µM [inhibitor, partial curve, poor fit]",,
COc1ccc(C[C@H](NC(=O)C2=C[C@@H](NC(=O)c3ccccc3Br)[C@@H](O)[C@H](O)C2)C(N)=O)cc1,,,inactive: 2.26%
COCCOc1ccc2c(n1)CCN(C(=O)CCC1CCCC1)C2,"inconclusive: 70.8 µM [inhibitor, partial curve]",,
COc1ccc(CCc2nc(C3CC(=O)N(c4ccc(Cl)cc4)C3)no2)cc1 (stereo not given),"inconclusive: 89.1 µM [inhibitor, partial curve, poor fit]",,
